Legend:
[1] = target: Mitogen-activated protein kinase kinase kinase 11 (Homo sapiens) (UniProt Q16584); test: Inhibition of MLK3 conserved Lys2 (DLKSNNILLLQPIESDDMEHK) in human PBMC at 1 uM
[2] = target: T1, Scaffold protein ILK (Homo sapiens) (UniProt Q13418); test: Inhibition of ILK Protein Kinase Domain (ISMADVKFSFQCPGR) in human PBMC at 0.1 uM
T1 sequence (whole entry): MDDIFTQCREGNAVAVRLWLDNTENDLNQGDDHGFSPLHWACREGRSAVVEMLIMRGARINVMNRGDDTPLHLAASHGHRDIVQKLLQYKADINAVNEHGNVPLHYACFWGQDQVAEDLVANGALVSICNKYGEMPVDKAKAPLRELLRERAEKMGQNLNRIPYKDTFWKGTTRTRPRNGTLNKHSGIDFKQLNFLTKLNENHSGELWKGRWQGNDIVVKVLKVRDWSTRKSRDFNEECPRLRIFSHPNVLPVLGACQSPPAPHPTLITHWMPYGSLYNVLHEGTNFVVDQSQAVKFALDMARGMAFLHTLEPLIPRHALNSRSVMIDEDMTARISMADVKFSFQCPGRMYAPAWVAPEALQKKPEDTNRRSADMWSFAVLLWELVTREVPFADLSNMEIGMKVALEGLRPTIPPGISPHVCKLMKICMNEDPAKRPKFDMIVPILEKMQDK

[3] = target: Misshapen-like kinase 1 (Homo sapiens) (UniProt Q8N4C8); test: Inhibition of ZC3/MINK conserved Lys2 (DIKGQNVLLTENAEVK) in human PBMC at 1 uM
[4] = target: Calcium/calmodulin-dependent protein kinase type II subunit beta (Homo sapiens) (UniProt Q13554); test: Inhibition of CaMK2b labeling at conserved Lys2 (DLKPENLLLASK) in human PBMC at 0.1 uM
[5] = target: Mitogen-activated protein kinase kinase kinase kinase 4 (Homo sapiens) (UniProt O95819); test: Inhibition of ZC1/HGK conserved Lys2 (DIKGQNVLLTENAEVK) in human PBMC at 1 uM
[6] = target: Serine/threonine-protein kinase Sgk1 (Homo sapiens) (UniProt O00141); test: Inhibition of SGK conserved Lys1 (FYAVKVLQK) in human PBMC at 1 uM
[7] = target: T1, Scaffold protein ILK (Homo sapiens); test: Inhibition of ILK conserved Lys1 (WQGNDIVVKVLK) in human PBMC at 0.1 uM
[8] = target: Serine/threonine-protein kinase Nek9 (Homo sapiens) (UniProt Q8TD19); test: Inhibition of NEK9 conserved Lys1 (RTEDDSLVVWKEVDLTR) in human PBMC at 0.1 uM
[9] = target: Ribosomal protein S6 kinase delta-1 (Homo sapiens) (UniProt Q96S38); test: Inhibition of RSKL1 domain1 Protein Kinase Domain (VLGVIDKVLLVMDTR) in human PBMC at 0.1 uM
[10] = target: Mitogen-activated protein kinase kinase kinase kinase 1 (Homo sapiens) (UniProt Q92918); test: Inhibition of HPK1 conserved Lys2 (DIKGANILINDAGEVR) in human PBMC at 1 uM
[11] = target: Kinase suppressor of Ras 1 (Homo sapiens) (UniProt Q8IVT5); test: Inhibition of KSR1 activation Loop (SKNVFYDNGKVVITDFGLFGISGVVR) in human PBMC at 0.1 uM
[12] = target: Cyclin-dependent kinase 18 (Homo sapiens) (UniProt Q07002); test: Inhibition of PCTAIRE3 conserved Lys2 (DLKPQNLLINER) in human PBMC at 0.1 uM
[13] = target: Cyclin-dependent kinase 8 (Homo sapiens) (UniProt P49336); test: Inhibition of CDK8 labeling at conserved Lys2 (DLKPANILVMGEGPER) in human PBMC at 0.1 uM
[14] = target: Serine/threonine-protein kinase MARK2 (Homo sapiens) (UniProt Q7KZI7); test: Inhibition of MARK2 conserved Lys2 (DLKAENLLLDADMNIK) in human PBMC at 1 uM
[15] = target: Tyrosine-protein kinase Lck (Homo sapiens) (UniProt P06239); test: Inhibition of LCK activation Loop (EGAKFPIKWTAPEAINYGTFTIK) in human PBMC at 1 uM
[16] = target: 5'-AMP-activated protein kinase catalytic subunit alpha-1 (Homo sapiens) (UniProt Q13131); test: Inhibition of AMPKa1 labeling at conserved Lys2 (DLKPENVLLDAHMNAK) in human PBMC at 0.1 uM
[17] = target: Cyclin-dependent kinase 11B (Homo sapiens) (UniProt P21127); test: Inhibition of CDK11 labeling at conserved Lys2 (DLKPANILVMGEGPER) in human PBMC at 0.1 uM
Sequence of UniProt P21127 (P21127 whole entry): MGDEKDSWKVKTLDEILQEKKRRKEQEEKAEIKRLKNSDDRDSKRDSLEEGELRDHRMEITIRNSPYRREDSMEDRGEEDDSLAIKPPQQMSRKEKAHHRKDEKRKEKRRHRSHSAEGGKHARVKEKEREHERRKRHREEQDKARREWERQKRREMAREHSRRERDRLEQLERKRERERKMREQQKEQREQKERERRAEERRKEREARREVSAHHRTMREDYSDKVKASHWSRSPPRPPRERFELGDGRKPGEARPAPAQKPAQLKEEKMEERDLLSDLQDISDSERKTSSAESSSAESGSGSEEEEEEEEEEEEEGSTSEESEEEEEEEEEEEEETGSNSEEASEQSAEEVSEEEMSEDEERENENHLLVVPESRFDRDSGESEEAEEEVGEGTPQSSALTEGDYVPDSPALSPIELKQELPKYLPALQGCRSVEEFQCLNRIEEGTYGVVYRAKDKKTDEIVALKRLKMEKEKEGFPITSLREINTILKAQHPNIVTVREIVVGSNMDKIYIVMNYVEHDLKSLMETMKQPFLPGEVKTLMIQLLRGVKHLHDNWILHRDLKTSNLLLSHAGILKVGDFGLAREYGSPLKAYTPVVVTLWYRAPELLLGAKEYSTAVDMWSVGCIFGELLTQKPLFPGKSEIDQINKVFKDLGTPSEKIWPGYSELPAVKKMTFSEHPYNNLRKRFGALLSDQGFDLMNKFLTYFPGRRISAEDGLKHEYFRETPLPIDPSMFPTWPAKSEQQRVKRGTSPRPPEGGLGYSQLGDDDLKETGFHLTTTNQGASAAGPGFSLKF

[18] = target: T1, Scaffold protein ILK (Homo sapiens); test: Inhibition of ILK conserved Lys1 (WQGNDIVVKVLK) in human PBMC at 1 uM
[19] = target: Phosphatidylinositol 5-phosphate 4-kinase type-2 alpha (Homo sapiens) (UniProt P48426); test: Inhibition of PIP4K2A ATP binding site (AKELPTLKDNDFINEGQK) in human PBMC at 1 uM
[20] = target: Serine/threonine-protein kinase mTOR (Homo sapiens) (UniProt P42345); test: Inhibition of FRAP conserved Lys1 (IQSIAPSLQVITSKQRPR) in human PBMC at 1 uM
[21] = target: Mitogen-activated protein kinase 14 (Homo sapiens) (UniProt Q16539); test: Inhibition of p38a (QELNKTIWEVPER) in human PBMC at 1 uM
Sequence of UniProt Q16539 (Q16539 whole entry): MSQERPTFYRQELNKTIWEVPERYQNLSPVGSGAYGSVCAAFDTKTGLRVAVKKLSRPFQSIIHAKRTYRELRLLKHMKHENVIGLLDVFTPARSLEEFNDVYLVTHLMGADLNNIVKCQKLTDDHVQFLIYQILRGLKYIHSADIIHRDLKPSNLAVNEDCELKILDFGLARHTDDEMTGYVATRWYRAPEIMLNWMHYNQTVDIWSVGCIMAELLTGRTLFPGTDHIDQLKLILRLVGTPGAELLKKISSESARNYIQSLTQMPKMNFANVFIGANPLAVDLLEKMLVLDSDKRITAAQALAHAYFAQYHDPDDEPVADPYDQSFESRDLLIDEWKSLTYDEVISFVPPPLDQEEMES

[22] = target: Serine/threonine-protein kinase Sgk2 (Homo sapiens) (UniProt Q9HBY8); test: Inhibition of SGK2 conserved Lys1 (FYAVKVLQK) in human PBMC at 1 uM
[23] = target: Serine/threonine-protein kinase 26 (Homo sapiens) (UniProt Q9P289); test: Inhibition of MST4 conserved Lys2 (DIKAANVLLSEQGDVK) in human PBMC at 1 uM
[24] = target: Calcium/calmodulin-dependent protein kinase type 1 (Homo sapiens) (UniProt Q14012); test: Inhibition of CaMK1a labeling at conserved Lys1 (LVAIKCIAK) in human PBMC at 0.1 uM
[25] = target: Dual specificity mitogen-activated protein kinase kinase 5 (Homo sapiens) (UniProt Q13163); test: Inhibition of MAP2K5 conserved Lys2 (DVKPSNMLVNTR) in human PBMC at 1 uM
[26] = target: Serine/threonine-protein kinase SMG1 (Homo sapiens) (UniProt Q96Q15); test: Inhibition of SMG1 ATP binding site (DTVTIHSVGGTITILPTKTKPK) in human PBMC at 0.1 uM
Sequence of UniProt Q96Q15 (Q96Q15 whole entry): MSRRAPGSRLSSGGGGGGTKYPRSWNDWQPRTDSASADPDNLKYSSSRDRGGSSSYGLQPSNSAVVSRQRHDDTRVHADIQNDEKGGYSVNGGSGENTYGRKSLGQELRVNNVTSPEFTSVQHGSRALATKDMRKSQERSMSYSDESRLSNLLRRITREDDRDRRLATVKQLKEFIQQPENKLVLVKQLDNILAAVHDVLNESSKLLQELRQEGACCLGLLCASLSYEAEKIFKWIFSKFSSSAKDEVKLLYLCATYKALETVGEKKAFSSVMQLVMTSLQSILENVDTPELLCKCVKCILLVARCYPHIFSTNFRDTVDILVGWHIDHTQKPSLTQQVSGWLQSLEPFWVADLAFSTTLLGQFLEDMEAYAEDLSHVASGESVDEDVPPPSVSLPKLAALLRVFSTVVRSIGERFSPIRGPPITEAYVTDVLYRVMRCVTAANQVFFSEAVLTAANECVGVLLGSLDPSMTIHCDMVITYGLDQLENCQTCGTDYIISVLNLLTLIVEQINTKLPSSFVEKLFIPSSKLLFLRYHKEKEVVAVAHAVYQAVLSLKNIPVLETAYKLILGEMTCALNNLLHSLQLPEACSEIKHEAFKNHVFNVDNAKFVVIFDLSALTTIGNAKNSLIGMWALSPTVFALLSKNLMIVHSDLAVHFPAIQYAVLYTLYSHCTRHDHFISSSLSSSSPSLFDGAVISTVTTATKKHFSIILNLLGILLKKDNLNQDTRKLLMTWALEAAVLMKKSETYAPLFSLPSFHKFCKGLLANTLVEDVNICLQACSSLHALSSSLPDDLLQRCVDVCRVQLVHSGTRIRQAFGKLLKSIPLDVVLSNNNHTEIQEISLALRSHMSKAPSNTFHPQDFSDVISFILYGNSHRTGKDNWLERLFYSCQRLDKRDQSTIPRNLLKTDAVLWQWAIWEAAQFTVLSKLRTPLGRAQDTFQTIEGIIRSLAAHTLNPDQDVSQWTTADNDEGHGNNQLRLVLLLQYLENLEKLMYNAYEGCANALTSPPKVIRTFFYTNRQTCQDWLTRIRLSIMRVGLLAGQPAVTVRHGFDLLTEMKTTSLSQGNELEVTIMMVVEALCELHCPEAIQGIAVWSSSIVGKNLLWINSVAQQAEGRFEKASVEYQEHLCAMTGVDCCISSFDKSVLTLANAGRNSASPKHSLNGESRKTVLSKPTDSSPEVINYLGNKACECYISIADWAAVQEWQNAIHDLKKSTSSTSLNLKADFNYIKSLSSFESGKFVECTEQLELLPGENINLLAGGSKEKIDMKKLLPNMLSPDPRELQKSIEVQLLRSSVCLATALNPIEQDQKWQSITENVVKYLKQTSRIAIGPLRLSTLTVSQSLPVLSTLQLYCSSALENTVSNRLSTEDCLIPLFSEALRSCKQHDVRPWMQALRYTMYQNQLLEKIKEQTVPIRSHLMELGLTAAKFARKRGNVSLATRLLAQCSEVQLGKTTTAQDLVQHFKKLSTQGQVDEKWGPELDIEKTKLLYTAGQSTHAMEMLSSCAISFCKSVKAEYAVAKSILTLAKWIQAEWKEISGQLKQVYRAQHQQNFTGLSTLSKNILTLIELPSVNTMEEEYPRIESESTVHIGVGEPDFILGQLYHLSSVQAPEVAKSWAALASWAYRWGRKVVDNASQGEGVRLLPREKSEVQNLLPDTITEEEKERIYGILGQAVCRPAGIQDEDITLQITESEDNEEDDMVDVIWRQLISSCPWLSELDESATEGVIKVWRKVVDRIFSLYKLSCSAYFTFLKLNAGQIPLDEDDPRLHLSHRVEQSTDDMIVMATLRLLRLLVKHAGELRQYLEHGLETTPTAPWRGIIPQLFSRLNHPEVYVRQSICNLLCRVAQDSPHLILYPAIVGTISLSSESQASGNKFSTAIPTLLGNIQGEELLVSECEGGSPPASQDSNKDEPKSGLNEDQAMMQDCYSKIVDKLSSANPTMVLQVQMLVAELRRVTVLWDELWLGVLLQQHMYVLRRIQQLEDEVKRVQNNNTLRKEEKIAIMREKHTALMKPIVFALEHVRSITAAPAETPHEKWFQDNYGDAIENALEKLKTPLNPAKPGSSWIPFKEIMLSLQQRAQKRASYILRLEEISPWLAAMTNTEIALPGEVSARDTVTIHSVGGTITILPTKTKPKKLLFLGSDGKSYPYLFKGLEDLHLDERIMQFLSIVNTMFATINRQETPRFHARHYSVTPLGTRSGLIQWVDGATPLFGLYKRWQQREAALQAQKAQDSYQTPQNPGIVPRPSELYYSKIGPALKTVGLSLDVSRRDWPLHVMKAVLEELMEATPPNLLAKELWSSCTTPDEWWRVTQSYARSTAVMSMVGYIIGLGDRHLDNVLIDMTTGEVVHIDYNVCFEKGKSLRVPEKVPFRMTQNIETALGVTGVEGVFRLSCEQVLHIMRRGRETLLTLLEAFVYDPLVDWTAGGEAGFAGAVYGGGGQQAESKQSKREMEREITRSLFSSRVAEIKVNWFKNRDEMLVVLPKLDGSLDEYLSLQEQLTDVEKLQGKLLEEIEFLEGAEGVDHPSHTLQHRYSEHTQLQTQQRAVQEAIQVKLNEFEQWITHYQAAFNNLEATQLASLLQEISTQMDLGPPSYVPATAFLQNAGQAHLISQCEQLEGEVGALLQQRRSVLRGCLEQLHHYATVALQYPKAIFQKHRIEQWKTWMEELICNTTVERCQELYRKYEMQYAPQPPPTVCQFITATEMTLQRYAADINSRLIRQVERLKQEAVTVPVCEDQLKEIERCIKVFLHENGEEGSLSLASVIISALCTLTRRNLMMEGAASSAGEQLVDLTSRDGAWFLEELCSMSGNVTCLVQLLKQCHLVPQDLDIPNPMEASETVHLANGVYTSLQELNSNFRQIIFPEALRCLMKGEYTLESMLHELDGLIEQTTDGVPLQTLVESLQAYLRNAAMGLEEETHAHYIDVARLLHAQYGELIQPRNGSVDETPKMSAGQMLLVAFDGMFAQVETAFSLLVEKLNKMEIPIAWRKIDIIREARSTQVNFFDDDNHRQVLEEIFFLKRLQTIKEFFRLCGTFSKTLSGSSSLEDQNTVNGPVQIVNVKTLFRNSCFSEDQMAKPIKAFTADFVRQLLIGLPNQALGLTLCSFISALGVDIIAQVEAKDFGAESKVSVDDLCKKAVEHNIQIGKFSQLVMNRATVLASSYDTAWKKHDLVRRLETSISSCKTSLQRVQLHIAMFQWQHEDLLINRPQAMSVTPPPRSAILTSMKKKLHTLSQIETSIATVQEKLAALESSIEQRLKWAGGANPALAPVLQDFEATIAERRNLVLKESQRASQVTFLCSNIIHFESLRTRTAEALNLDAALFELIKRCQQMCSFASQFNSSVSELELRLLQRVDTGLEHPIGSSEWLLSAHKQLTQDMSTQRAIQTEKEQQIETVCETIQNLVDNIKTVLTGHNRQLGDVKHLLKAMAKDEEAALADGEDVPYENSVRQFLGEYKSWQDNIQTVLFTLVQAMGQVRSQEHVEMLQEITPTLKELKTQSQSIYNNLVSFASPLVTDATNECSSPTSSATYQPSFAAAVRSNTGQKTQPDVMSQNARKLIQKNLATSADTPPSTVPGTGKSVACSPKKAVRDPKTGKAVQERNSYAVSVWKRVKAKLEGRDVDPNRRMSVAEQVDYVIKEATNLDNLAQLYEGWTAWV

[27] = target: MAP kinase-activated protein kinase 3 (Homo sapiens) (UniProt Q16644); test: Inhibition of MAPKAPK3 ATP binding site (QVLGLGVNGKVLECFHR) in human PBMC at 0.1 uM

CC(C)n1cc(-c2cc(-c3ccc(CN4CCOCC4)cc3)cnc2N)nn1
inhibition [1]: -5.2% | inhibition [2]: 2.5% | inhibition [3]: 29.1% | inhibition [4]: -7.5% | inhibition [5]: 29.1% | inhibition [6]: -2.2% | inhibition [7]: 7.6% | inhibition [8]: 10.3% | inhibition [9]: 29.2% | inhibition [10]: 4.3% | inhibition [11]: -2.7% | inhibition [12]: -6.4% | inhibition [13]: 5.7% | inhibition [14]: 28.8% | inhibition [15]: -1.6% | inhibition [16]: 14% | inhibition [17]: 5.7% | inhibition [18]: 10.4% | inhibition [19]: 13.4% | inhibition [20]: 7.3% | inhibition [21]: 1% | inhibition [22]: -2.2% | inhibition [23]: 9.9% | inhibition [24]: -7.6% | inhibition [25]: 0.1% | inhibition [26]: -2.4% | inhibition [27]: 9.4%

Reference: ChEMBL document CHEMBL4043168, “The design and SAR of a novel series of 2-aminopyridine based LRRK2 inhibitors” (Bioorg Med Chem Lett, 2017)
